Source: PubChem BioAssay AID493208 (National Center for Advancing Translational Sciences (NCATS), 2011)
Hit rate of the full screen: of about 44,000 compounds, about 340 (0.77%) were called active. Inconclusive results (about 5%) are left out. The call rests on the fitted dose curve; in most records, active means well fitted inhibition curve with a large enough effect; inconclusive means small, poorly fitted or top-dose-only effect; inactive means flat fitted curve, though single readings scatter. Some of the results follow.

Assay: Acumen qHTS Assay for Inhibitors of the mTORC1 Signaling Pathway in MEF (Tsc2-/-, p53-/-) Cells: Sytravon;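 further: plate controls were DMSO for no effect and rapamycin for full effect; nearly all actives have a fitted effect of over 50% in size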
Conditions: phospho-rpS6 immunofluorescence/PI, 24 h; series mostly up to 38.3 µM; activity change, negative = inhibition: at the top concentration
How it was run: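 Compounds act on Tsc2-/-, p53-/- fibroblasts carrying an empty vector for 24 h before fixation and dual staining for phospho-S6 and DNA (propidium iodide). Values are percentages of cells above a rapamycin-defined pS6/PI threshold.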

Activity change, negative = inhibition, inactive:
CCOc1ccc(-c2c(C)nn3c(C)c(C(=O)NCc4ccc(Cl)cc4)cnc23)cc1OCC -9.88%
CCc1ccc(-n2nc3cc(C)c(NC(=O)c4ccccc4C)cc3n2)cc1 1.84%
CCC(NC(=O)Nc1cc(Cl)ccc1OC)c1c(-n2cccc2)sc2c1CCN(C)C2 (stereo not given) -3.72%
COc1ccc(CNC(=O)CCc2c(C)nn(-c3ccc(N4CCCCC4)nn3)c2C)cc1 5.24%
CCCCCn1c(=O)[nH]c2cc(C(=O)NCCN(C)CCCC)ccc2c1=O -17.4%
N=c1n(CCO)c2ccccc2n1Cc1ccccc1F -14.7%
O=C(CSc1c2c(nc3ccc(Cl)cc13)CCCC2)NCc1ccccc1Cl -2.03%
COc1ccc(CCNC(=O)c2cc(=O)c3cc(C)cc(C)c3o2)cc1OC -0.454%
O=C(OCc1ccco1)c1ccc2c(c1)N(Cc1cccc(F)c1)C(=O)c1ccccc1S2 9.01%
CCC(Sc1nc2ccccc2c2nc(CCn3c(C)nc4ccccc43)nn12)C(=O)Nc1ccc(F)cc1 (stereo not given) 2.19%
CCOc1ccccc1NC(=O)CC(c1ccc(F)cc1)N1Cc2ccccc2C1=O (stereo not given) -2.01%
Cc1ccc(-c2cc(C(=O)OCC(=O)c3ccccc3)c3cccc(Cl)c3n2)cc1 -23.8%
COc1ccccc1N1CCN(C(=O)C2CCN(S(=O)(=O)Cc3ccccc3)CC2)CC1 -2.42%
CCC(Cc1ccccc1)NC(=O)CN1C(=O)COc2ccc(S(=O)(=O)N3CCCCCC3)cc21 (stereo not given) -11%
Cc1cc2c(cc1NC(=O)c1ccccc1C)n(C)c(=O)c(=O)n2C 1.75%
COc1ccc(CCNC(=O)CCCn2c(=O)c3cccn3c3ccccc32)cc1OC 4.6%
CCOCCCNC(=O)C1CCN(C(=O)c2cc3sccc3n2C)CC1 0.558%
COc1ccc(NC(=O)CCCN2C(=O)C(c3ccccc3)Oc3cccnc32)c(OC)c1 (stereo not given) -2.4%
CCc1ccc(CNC(=O)CCCN2C(=O)CCn3nc(-c4cccn4C)cc32)cc1 5.6%
CCc1ccc2oc(C(=O)Nc3cccc(Cl)c3C)cc(=O)c2c1 -2.64%
CC(C)CCN(Cc1ccco1)C(=O)c1cc2c(s1)-c1ccccc1OC2 -4.24%
COc1cc(-c2nnc(SCCOc3ccc(Cl)cc3)o2)cc(OC)c1OC -16.6%
O=C(COc1ccccc1)OCc1cc(=O)n2nc(C3CC3)sc2n1 -5.74%
Cc1ccc(C(=O)c2c(N)c(-c3nc(-c4ccc5c(c4)OCO5)cs3)c3ccccn23)cc1C 0.267%
Cc1cccc(N2CCN(C(=O)Cc3c(C(=O)O)c(C)cn3C)CC2)c1C 2.12%
Cc1ccc(C(=O)Nc2cc(-c3nc4ncccc4o3)ccc2C)c(C)c1 0.45%
COCc1nn2cc(-c3ccc(C)cc3)nc2s1 -11.4%
CC(=O)N1CCc2c(sc3c2c(=O)n(Cc2ccccc2)c(=O)n3Cc2ccc(C)cc2)C1 0.278%
COC(=O)c1ccc(Cn2cnc3nc4c(cc3c2=O)CCCC4)cc1 2.39%
CC(=O)c1ccc(N2CCN(C(=O)C3CCN(S(=O)(=O)c4c(C)noc4/C=C/c4ccc(C)cc4)CC3)CC2)cc1 0.037%
CCOc1ccccc1CNC(=O)C1CCN(S(=O)(=O)c2ccc3[nH]c(=O)ccc3c2)CC1 0.275%
CCOc1ccccc1NC(=O)Cn1ncc2c(=O)oc3ccc(C)cc3c21 0.0134%
COc1ccccc1NC(=O)CSC1=Nc2ccccc2C2=NC(CCC(=O)NCCc3ccccc3)C(=O)N12 (stereo not given) 1.73%
CCOC(=O)c1c(C)oc2ncnc(Nc3ccc(OC)cc3OC)c12 0.392%
O=C(Nc1nc2c(s1)CCCCCC2)Nc1ccc(F)cc1F -1.04%
COc1ccc(N2CCN(C(c3ccccc3)c3sc4nc(-c5ccco5)nn4c3O)CC2)cc1 (stereo not given) -2.51%
Cc1ccc(C(=O)N2CCc3cc(CNS(=O)(=O)c4cccs4)ccc32)cc1 0.138%
CN1C(=O)Cc2cc(S(=O)(=O)NCCc3ccc(Cl)cc3)ccc21 -9.49%
COc1ccc(-c2noc(CSc3nnc(C)n3-c3ccc(C)cc3)n2)cc1OC 4.25%
COc1ccccc1N1CCN(C(=O)c2cn(CC(C)C)c(=O)c3c2c2ccccc2n3C)CC1 2.24%
O=C(Nc1ccc(O)c(-c2nc3ccccc3o2)c1)c1sc2ccccc2c1Cl 10.2%
CCCOc1ccc(NC(=O)CC2C(=O)N(c3cccc(OC)c3)C(=O)N2Cc2cccs2)cc1 (stereo not given) -1.19%
O=C(CSCc1cnn(-c2ccccc2)c1-n1cccc1)NCc1ccc(Cl)cc1 3.15%
Cc1cc(F)ccc1S(=O)(=O)Nc1ccc2oc3c(c2c1)CC(C)CC3 (stereo not given) -19.1%
Cc1nc2ccn(Cc3ccccc3)c(=O)c2cc1C(=O)N1CCN(c2ccccc2F)CC1 1.7%
CCOc1ccccc1C(=O)NC1(C(F)(F)F)NC(=O)N(CCc2ccc(OC)c(OC)c2)C1=O (stereo not given) -21.6%
COc1cc(OC)cc(-c2cc3nc(C)c(CCC(=O)NCc4ccccc4)c(C)n3n2)c1 -18.4%
O=C(Nc1nnc(S(=O)(=O)N2CCCc3ccccc32)s1)c1ccccc1Cl 3.85%
Cc1ccc(-n2nc(CO)c(C(=O)NC(C)CCCc3ccccc3)n2)cc1 (stereo not given) 2.33%
COc1ccc(NC(=O)c2c(NCc3sccc3C)sc3c2CCCC3)c(OC)c1 -10.1%
CCc1nn2c(=O)cc(COC(=O)CNC(=O)COc3ccc(C)cc3)nc2s1 0.216%
CCC(=O)N1CCc2cc(S(=O)(=O)CCC(=O)N3CCN(c4ccc(Cl)cc4)CC3)ccc21 -2.25%
CC(C)CC(NS(=O)(=O)c1ccc2c(c1)oc(=O)n2C)C(=O)NCc1ccccc1Cl (stereo not given) -16%
CCCOc1ccc(CN(C(=O)Cc2coc3ccc(CC)cc23)C2CCS(=O)(=O)C2)cc1 (stereo not given) -20.9%
Cc1ccc(NC(=O)CN2CCN(S(=O)(=O)c3ccc(C(C)C)cc3)CC2)cc1F -4.33%
COc1ccc(Nc2nc(N)nc(N)c2S(=O)(=O)c2ccccc2)cc1 -6.77%
Cc1cn(C)c(CC(=O)N2CCN(c3cccc(Cl)c3)CC2)c1C(=O)O 3.07%
Cc1ccc(-n2cc(C(=O)Oc3cccc(C)c3)c3ccccc3c2=O)cc1 -7.52%
COc1cccc(NC(=O)CSC2=Nc3ccccc3C3=NC(CCC(=O)NCCc4ccccc4)C(=O)N23)c1 (stereo not given) 0.0107%
Cc1cccc(NC(=O)c2ccc3nc(C(C)C)oc3c2)c1C 0%
CCCN(CCC)C(=O)Cn1c(=O)n(-c2ccc(CC)cc2)c(=O)c2ccc(C(=O)NCCc3ccccc3)cc21 -19.3%
CCOC(=O)c1ccc(Nc2nc3ccc(C(=O)c4ccccc4)cc3n3c(C)nnc23)cc1 1.18%
O=c1c2ccccc2n(Cc2ccccc2Cl)c(=O)n1CCc1ccccc1 -6.81%
CCCCCOc1ccc(Cn2c(=O)oc3ccccc32)cc1 -11.7%
COc1cc(Cl)c(NC(=O)CCS(=O)(=O)c2ccc3c(c2)NC(=O)CO3)c(OC)c1 6.31%
CC(C)(C)OC(=O)N1CCC(c2c(C(=O)NC3CCN(Cc4ccccc4)CC3)cnn2-c2ccc(F)cc2F)CC1 0%
COc1ccc(CCNC(=O)c2ccc3c(c2)CCN3S(=O)(=O)c2ccc(C)cc2)cc1 4.21%
COc1ccc(-c2cc(C(=O)NCCc3ccccc3)c3c(-c4ccccc4)[nH]nc3n2)cc1OC 1.38%
Cc1ccc(NC(=O)C2CCCN(S(=O)(=O)c3ccc4c(c3)oc(=O)n4C)C2)cc1Cl (stereo not given) 3.05%
CCOc1ccc(NC(=O)C(=O)c2cc(C)n(-c3cc(C)cc(C)c3)c2C)cc1 -3.06%
CCOc1ccc(S(=O)(=O)Nc2cccc(-c3ccc(OCC)nn3)c2)cc1 3.2%
Cc1ccc(/C=C/c2onc(C)c2S(=O)(=O)N2CCC(C(=O)Nc3cc(C)ccc3C)CC2)cc1 5.08%
COc1ccccc1CCNC(=O)C(=O)NCC(c1cccs1)S(=O)(=O)c1cccs1 (stereo not given) -13.3%
O=C(Nc1ccc(F)cc1C(F)(F)F)C1CCN(c2ncccn2)CC1 4.18%
COc1ccc(S(=O)(=O)c2cn(C)c3ccc(C)cc3c2=O)cc1 0.788%
Cc1cccc(NC(=O)c2c(C)cc(C)nc2SCC(=O)c2ccccc2)c1 -10.7%
Cc1cc(C)c2oc(C(=O)Nc3ccc(S(=O)(=O)N4CCCCCC4)cc3)cc(=O)c2c1 2.15%
Cc1cccc(NC(=O)COC(=O)CCCC2=NS(=O)(=O)c3ccccc3N2)c1 0.892%
CCOc1ccc(OCC)c(Nc2ccc3cc(S(=O)(=O)N4CCCC4)ccc3n2)c1 2.02%
CCC1CN(C(=O)N2CCC(C(=O)NCc3cccc(OC)c3OC)CC2)c2cc(C)ccc2O1 (stereo not given) -11%
COc1ccccc1NC(=O)c1sc2nc(C)c(C(=O)Nc3ccc(C)cc3C)c(-c3ccco3)c2c1N -1.03%
CC(C)c1ccc(NC(=O)c2ccc(F)c(S(=O)(=O)N3CCc4ccccc43)c2)cc1 8.79%
CCC(C)NC(=O)CSc1nc2n[nH]c(C)c2c(=N)n1-c1cc(Cl)ccc1C (stereo not given) -11.2%
O=C(C1CCCN(S(=O)(=O)c2cccc3nsnc23)C1)N1CCN(c2ccccc2F)CC1 (stereo not given) 1.72%
COc1cccc(-c2noc(C3CC(=O)N(c4ccc(F)cc4)C3)n2)c1OC (stereo not given) -15.5%
COc1ccccc1CNC(=O)c1cc2sccc2n1Cc1ccc(Cl)cc1 -2.57%
Cc1ccccc1NC(=O)CSc1nc2ccc(NC(=O)c3cccs3)cc2s1 -9.71%
CCc1ccc(NC(=O)CCn2c(=O)c3cccn3c3ccccc32)cc1 -0.666%
COc1ccc(NC(=O)CSc2ccc3nc(-c4ccccc4)cn3n2)c(OC)c1 -15.3%
Cc1ccc(NC(=O)c2ccc3[nH]c(C)cc(=O)c3c2)cc1 -13.6%
CSc1cccc(NC(=O)c2cccc(N3CCCS3(=O)=O)c2)c1 0%
O=C(Cn1nc(C(F)(F)F)c2c1CCCC2)Nc1ccc(Br)cc1 -2.36%
COc1cccc(CNC(=O)COc2cc(=O)n(C)c3ccccc23)c1 -0.431%
Cc1ccc(-n2nnnc2CNC(=O)c2cc(C(F)(F)F)cc(C(F)(F)F)c2)cc1C -22.1%
COc1ccc(-n2ncc3c(NC4CCCC4)ncnc32)cc1 -18.1%
